According to the supplement of paper PMC10126150:
Sequences with one replicate were seen in a single cluster, so their values are uncertain.

System: ATP
Test: switch fluorescence ratio, 500 uM ATP over buffer (Cy3 cluster intensity, sum of 5 cycles each) (fold (ratio)); higher = stronger signal-on switching upon ATP binding; sequences stand for … in TCGTCGGCAGCGTCAGATGTGTATAAGAGACAGTTTTTTTTTTTTTTTTTTTTTTTTT…TC
Settings: aptamer strand: ATP DNA aptamer (quencher-CACCTGGGGGAGTATTGCGGAGGAAGG + anchor), 100 nM annealed; ATP concentration: 500 uM; one replicate
In short: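 The fluorescence ratio divides summed target-cycle Cy3 intensity by summed buffer-cycle Cy3 intensity for each cluster and is averaged per switch-domain sequence. Cy3-labelled switching-strand clusters on a modified Illumina MiSeq flow-cell were annealed to 100 nM quencher-labelled ATP aptamer, then imaged in selection buffer and again after 15 min with 500 uM ATP at 22 °C. Five such cycles were run, with NaOH stripping and re-annealing between them, and clusters outside 100-1000 RFU were excluded.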
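Also: ATP exposure 15 min at 22 °C before imaging.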

Sequence | switch fluorescence ratio
GACTCGCACC | 2.92
AAACTCACTG | 1.18
CAATGAGGGG | 1.06
GCTGCGTTCT | 1.04
AGCCAATGTC | 1.15
CTTTCCCGCG | 1.6
TACTCCAAAA | 4.1
GCAGCAGACT | 2.89
GGGTGCCCTG | 0.992
AGCTACAGAG | 0.994
CTATTCGGCG | 0.991
GATTGCCTTG | 1.03
ACTCCTGG | 1.07
GGGCAGAAGA | 0.98
GGTCCCGCTA | 1.06
TGTTGTTCAC | 1
TATGGTAAGG | 0.944
GATGACTGTA | 1.15
CAATTGGCG | 0.988
TGCGAAAGGG | 0.992
CCGCGCGATG | 3.5
GGCGGCGGAA | 1.02
ATATGTGTTA | 0.971

Sequence | switch fluorescence ratio
ACACCACAGT | 1.44
ACTGGGGGAT | 1.03
TGGCGCAGTG | 1.01
TTGCACCCCT | 1.07
TAAATGAGTA | 0.972
TCATGTGGGC | 1.05
AGTGAATCGG | 0.968
CCGGGTGCCA | 1.12
TATTGGTGGA | 0.984
GAAAGTATCT | 1.01
TCGGTGCATG | 1.04
TATTCATGAG | 0.974
TCAGGGATGT | 0.997
CAGAGGGTGA | 1.07
CAGTAATGAA | 1.03
CACTGGGATA | 1.02
CTCAACCTCG | 0.986
ACGCATTTAA | 1.34
TTGTGGGTCA | 1.03
CGAGAAATT | 0.986
AACACAGAAA | 1.01
ATCCAGACCC | 1.12
ATAAAAACAG | 0.993

Sequence | switch fluorescence ratio
GTATGACCTG | 0.988
AAGTGCACCG | 1.02
TAGGTTTTCT | 0.994
TCCTAAAGAG | 1.02
TAGTCAAGTT | 1.08
AGCTCCAGCG | 1.04
TCCGAGAATT | 1.69
ACGAACTGCG | 1.2
AGTAGACTA | 1.01
GGCGGGGCCT | 1
AATGATATGT | 0.942
GGGTTTGCTT | 0.996
AAATGTATTT | 1.01
CACGATATAC | 2.29
CGGCTATTTA | 0.945
GGCAATTCGG | 0.999
GCTAGTCGCG | 0.959
AGCGGCTAAA | 1
TCTTTCGGGT | 1.01
CGGTAAGGGT | 1.03
AACATGGTCG | 0.901
TGGAGATTTG | 1
TGTTACTT | 1.02

Sequence | switch fluorescence ratio
CGAAGGAGTA | 0.948
CTGAATAAGG | 1.02
TAGTGCCGTG | 1.09
GGGAATCACC | 0.992
CACTTTTAAT | 1.06
ACTCTGGTTC | 1.09
CTCAGATATC | 1.05
TCCTTTTCG | 1.08
GCCGTCATGA | 1.01
GGTGGGGTTC | 0.972
GAGAATTGTG | 1
GTTTGAGTCG | 1.05
CCCTAATCTA | 0.999
AGGACAAGTT | 0.995
TTCACGCGAC | 1.66
CTGAAGGTTC | 1.1
AAGGTCCTTT | 0.998
GTAGGAAGGG | 1.02
CAGAATGTAG | 0.983
ATGGTTTCG | 0.944
GGAGAGAATT | 1
TGTTTCCGCA | 2.88
AAAGAGAATG | 1.04

Sequence | switch fluorescence ratio
ACGTTATAA | 1.44
ACAGAGTTCA | 0.982
ACATAAAG | 0.982
CGCCCACA | 1.8
GAGGACAATT | 1.05
TGAGGACTAC | 0.968
AAGTCAACTT | 1.01
ATAAGACTCC | 1.2
TATTCGCCCT | 0.997
TTTAGAGTGG | 0.995
TTAGCACTGA | 1.08
CTTCAATTTT | 0.988
TGGGGGAAT | 1.02
GAGTGGAACT | 0.998
AAGTGACGAC | 1.1
GATCCAATTG | 1.02
TCGGTCCCGT | 1.01
CGTCGAGTAC | 1.11
CTCCTCATTG | 1.42
TCGAACATTA | 1.02
TAGCCGCAGC | 1.25
TGGGGTTACG | 0.991
AATATACTTG | 1.04

Sequence | switch fluorescence ratio
CCCTGCCTAA | 1.14
CGTACCTAAT | 1.03
CCCAAAGATT | 0.969
TCCAAGGGCG | 1.01
GCGTACGGAC | 1.2
GCCGGGAAAA | 1.04
GAAAGAAATT | 0.992
TTGGCTGAAG | 0.955
CTTACAGTCT | 1.03
GTGGGGGCTC | 1.01
GTCAGGCGGC | 0.994
TAAGTGCTTT | 1.02
CAAGAATATT | 1.01
ACTGAGCATA | 1.47
GCCCTTTGAA | 0.947
AAATTGTGGA | 1.03
GCGTTTTACG | 0.996
GTGATAGATC | 1.05
AGCTTGTTGT | 1.02
TGATCGAAGT | 0.965
ATATCAGTGC | 0.958
CTCTTGGGCA | 1.01
TCTGATGCCT | 1.09

Sequence | switch fluorescence ratio
TGCGGTCGGT | 0.969
AGCGTTCATC | 1.01
ATAGTCATTA | 1.07
TTCGTAGGGG | 1.03
GAGTGGTGGT | 0.976
CGGGCGATAT | 1.16
GTTTGATGCT | 0.954
GCGTGGGGTA | 1.02
CTGAATTT | 1.03
CCTCCTTAGC | 1.71
GCTGGTGTCT | 0.98
CTCCTTTTCG | 1.04
AGGCGCTAAT | 0.98
CGGGCGAGCT | 0.965
AAATGTTGAC | 1.02
GAAGGGTCAT | 1.02
ACTGTCGCCG | 0.971
GACGCTGAAG | 1.02
GAATGCGTGC | 1.05
